± gives the standard deviation of the averaged measurements. The list shows a part of the results.
Test system: PfAP2-G AP2 domain (GST-tagged)
Experiment: gcPBM binding intensity (ln(normalized median fluorescence intensity)); higher = stronger DNA binding
How it was run: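 Alexa488 anti-GST antibody, scanned at 488 nm, detected GST-tagged P. falciparum DNA-binding domains that had been expressed in E. coli and incubated for 1 h on an Agilent 4 × 180k array. The array carried primer-extended double-stranded 36-bp intergenic genomic probes and negative controls. Binding intensity is the highest Masliner-normalised natural-log median intensity across replicate spots of either orientation of each probe.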

Row | Sequence | gcPBM binding intensity (ln)
1 | TCATTTTAATTAAAAGTGCAAAAAATAATATAACTA [GTGCAC_site9968] | 10.1 ± 0.13
2 | ATTAATTCGTTTTGTACACACATAATGAATAATTTA [CACACA_site2235] | 11.1 ± 0.71
3 | TACAATAATGATTGTTGTACATTATTGATATTTAAA [XGTACX_site2940] | 10.9 ± 0.67
4 | TTTAATTTTTAATCAGTGCAATATTATATAATATAT | 9.88 ± 0.18
5 | AAAAAAAAACAGAAAACACACAAATTATCTTAGAAT [CACACA_site309] | 9.76 ± 0.18
6 | TTATATAGGTCATTCATAAATACAGTTTTTAAAAAA [CACACA_negctrl_site1340] | 10.2 ± 0.3
7 | ATTTATTTCACAAAAACATGCAGTTTGAAATTGCCA [TGCATGCA_site910] | 9.785 ± 0.049
8 | AATTCATTATATATACGTACATATTTCTGTATAAAA [XGTACX_site6371] | 11.3 ± 0.79
9 | GCATAAATTATCATAACATAAATATAAAAATATAAT [GTGCAC_negctrl_site55] | 9.79 ± 0.2
10 | GATTATTTTATAAGTACACACATTTATATATAATAA [CACACA_site2573] | 11.5 ± 1.1
11 | AAAAAAAAAAGACACACACACACATAAATATAAATA [CACACA_site6215] | 10.1 ± 0.11
12 | TTTCACCATATAAACGTGCACACTACAAAAATATAT [CACACA_site2547] | 10.6 ± 0.44
13 | TTCATGCTTATATGTGCACACACAAAAGAAAAGAAA [CACACA_site1656] | 10.6 ± 0.57
14 | AAATAATAAATTATAACACACATATATATATATATA [CACACA_site4045] | 9.95 ± 0.3
15 | ATAATACAATTTATAACACACACACTATAATACATA [CACACA_site8338] | 10.025 ± 0.007
16 | GGAAAGACAGTTCACAGTACCCAGTAACTCTACGGA [XGTACX_site2009] | 10.6 ± 0.3
17 | TTGTTTATCAACAGCACACACAACAACAACAACAAC [CACACA_site458] | 10.1 ± 0.23
18 | ATAAAAACATAAACAAATCAAAAAAAAAAAAAAAAA [CACACA_negctrl_site13] | 9.54 ± 0.38
19 | GAGCGTAATCTATTTGCACACTTATTTGTTCTTAAA [CACACA_site673] | 10.055 ± 0.007
20 | GTGTATAATATAGGATGTACAATAAAACACCGATTG [XGTACX_site7429] | 11.1 ± 0.71
21 | ATTTAAATATCTTCTTTTTTTTTTTTTTTTGAAATT [CACACA_negctrl_site1074] | 9.53 ± 0.085
22 | AAATAATGAAACAAAGTGCATAAAAATATACATATA [GTGCAC_site9467] | 9.96 ± 0.071

Row | Sequence | gcPBM binding intensity (ln)
23 | ATGGATTATACGTGCACACATATATACCAATAAATA [CACACA_site4524] | 10.7 ± 0.58
24 | CATTAAAATATGAGATGTACACAATATCTATTATAT [XGTACX_site4979] | 11.4 ± 0.67
25 | ATTATTTTCTCATAGAGTACAAATGTTGTTGTTGTC [XGTACX_site1062] | 11.1 ± 0.86
26 | TATTTTCATAATAAAAAAAAATAATTTAAAAAATAT [CACACA_negctrl_site748] | 9.595 ± 0.007
27 | TGTTATATGTTCAAATGTACAAATCATATACATGTT [XGTACX_site3192] | 10.6 ± 0.38
28 | GTGTACAGACACAAAATATATACATATATATATATA [CACACA_negctrl_site1796] | 10.8 ± 0.81
29 | AATATATAAACCGAACGTACATATTTTTTATACACC [XGTACX_site2121] | 11.1 ± 0.53
30 | AATTATATTTGAAATACACACATAAAAATCATATAG [CACACA_site3468] | 9.98 ± 0.028
31 | CTTATTGATTTAAAAAGTACATATATGTATATACAC [XGTACX_site4072] | 11.5 ± 0.83
32 | AAAAAAAAAAAAAATACACACATATAAATATAAATA [CACACA_site6189] | 9.91 ± 0.21
33 | AGATTTAAATATCATACACACTTTATATATAATACA [CACACA_site4688] | 9.99 ± 0.23
34 | ATTAGAGAATCGTAACCCAAATGAACATACTTAAAT [GTGCAC_negctrl_site363] | 10.04 ± 0.035
35 | TGTGCACATAATTAGTGTACATTTTTTATTTAGACA [XGTACX_site317] | 11.4 ± 0.93
36 | AATGGCAAAATAGGCACACACACATATACATATATA [CACACA_site1058] | 10.2 ± 0.29
37 | CATATTTACATTAAGTGTACTTATGAATATATATAC [XGTACX_site7962] | 11.3 ± 0.79
38 | ATAATATTTTATAATTGTACTTTTTATAAATATAAA [XGTACX_site1940] | 11.3 ± 0.99
39 | AAAATACATATATATATATATAATATTGTTGTTAAA [GTGCAC_negctrl_site519] | 9.595 ± 0.007
40 | ATATTTTTTTTCATTTGTACACATAAAATTATATAG [XGTACX_site8260] | 11.5 ± 1
41 | AATATTTTATTTTTTCTCATTAAAAATTTTTTTTTT [CACACA_negctrl_site364] | 9.67 ± 0.23
42 | GATAGATAATATTTTAGTACATAAACAATTAAATAT [XGTACX_site4125] | 11.1 ± 0.86
43 | TTTTTATTTTTAGTAGTGCATTAATCATATGGTCAT [GTGCAC_site9879] | 10.5 ± 0.44
44 | TAAATAAATCCACATACACACACGACGCTAGTATAT [CACACA_site1060] | 10.02 ± 0.092

Row | Sequence | gcPBM binding intensity (ln)
45 | ATTATTCGTTTTAAATGTACTCATATAAACGATAAA [XGTACX_site7866] | 11.4 ± 1.2
46 | CAAAAGAAGGTAAACACACACACACCCATACAAAAA [CACACA_site3765] | 10.4 ± 0.38
47 | TGAGACATGAATGCAAGTACAAAAAGGAGAACAAAA [XGTACX_site6183] | 11.2 ± 0.62
48 | TACATATATTTTTTATGTACTTACTTGTGTGTTTAT [XGTACX_site5126] | 11.4 ± 0.93
49 | TACAGAAATTTATATATATATATATATATATATATA [XGTACX_negctrl_site209] | 9.81 ± 0.68
50 | AAATCAAAAACGTTTACACACATTCTTATTTAAATA [CACACA_site790] | 10.04 ± 0.078
51 | AATAATTGCTAAAGGTGTACAATACGTATATAAGAA [XGTACX_site4910] | 11.6 ± 0.96
52 | TTTTATAATTTCAAAGGATTCTTTAATATTATAAAT [CACACA_negctrl_site1812] | 9.595 ± 0.021
53 | AAATTATATATAATAAATAATTTCTTTTTCTAAAAG [CACACA_negctrl_site8] | 9.68 ± 0.16
54 | AAAAAAAAAAAAAAAAGTACACACTTTTGCCTACAT [XGTACX_site6583] | 11.6 ± 0.86
55 | TTAATAACAAAATAAACACACATATATAAATACACA [CACACA_site6849] | 9.94 ± 0.014
56 | TTATATTTTTTTTGTAGTACATTATAGAATACACAC [XGTACX_site969] | 11.6 ± 1
57 | TTAATCTTCATAAAATGTACAGAAGATTGAATATTC [XGTACX_site6213] | 10.7 ± 0.54
58 | TGAAAGTGTATTAAAGTGCATATTATTTTATCTACC [GTGCAC_site9969] | 10 ± 0.18
59 | AAATGTTGAAATGATACACACATATATATATATATA [CACACA_site2517] | 10.2 ± 0.45
60 | TTTATTAAAACAAAATGTACACACATATAATTTAAT [XGTACX_site1637] | 11.2 ± 0.68
61 | TAAATTCTGTTTAAAAGTACAAATAATATTGTGCCT [XGTACX_site7805] | 11.1 ± 0.73
62 | CCTATTTATATATACACACACATATATAAATAAATA [CACACA_site2991] | 10.2 ± 0.36
63 | AATATACACATTGTGAAATAACAAAAAAGGCAAAAA [CACACA_negctrl_site1014] | 9.93 ± 0.042
64 | AATCTATATTGACACACACACAAAAAAAAAAAAAAA [CACACA_site6739] | 10.1 ± 0.35
65 | ATTTTAACCAATTATTGTACTTGGTTATTCTTTTTT [XGTACX_site7453] | 11.1 ± 0.68
66 | ATATATATATTAAAGGTGCACAAATAAATATATACA [GTGCAC_site9532] | 10.4 ± 0.35

Row | Sequence | gcPBM binding intensity (ln)
67 | ATATTTTTTTTCTTCACACACATGAATTATATATAA [CACACA_site3216] | 10.3 ± 0.33
68 | ATATATATTCATAATACACACATTCTGTAGCATTAT [CACACA_site2067] | 9.855 ± 0.035
69 | ATAGTATCTGGTAGCTGTACGAATGGTAGAGAGTAG [XGTACX_site2548] | 11.4 ± 0.59
70 | AATAAAAAGATATTCTCCTTGTTCCTTTTTTTTAAA [CACACA_negctrl_site1147] | 10.2 ± 0.2
71 | TATATATATGTATGATGTACATATATGCATATATAT [XGTACX_site3399] | 11 ± 0.79
72 | TTAATTAAATATTATACACACAAAAAAATAATTTTA [CACACA_site96] | 10 ± 0.16
73 | GTTAAAATAATATTATGTACATATATATAAAAATAT [XGTACX_site8512] | 11.3 ± 0.71
74 | GTTTGTAAATATTTTACACACATATTTATTTATATA [CACACA_site6632] | 9.86 ± 0.12
75 | TATAAATATGTGTTTACACACAATAATGAATTAAAA [CACACA_site6555] | 9.83 ± 0.11
76 | AACCTCAAATACACAAGTACGTATAATAAGGAACAA [XGTACX_site4304] | 11.4 ± 0.8
77 | CATATTAAAAATACATGTACATATATATTTAATATA [XGTACX_site8580] | 11.3 ± 0.91
78 | ATGGAAAAATGTATATATAAAATAAATATATTATAT [CACACA_negctrl_site1712] | 9.6 ± 0.2
79 | TTTTAAATAAATCATGCATGCACATATAATTATATT [TGCATGCA_site151] | 9.865 ± 0.064
80 | TTATGAAAAAAATACTGTACACAATATGACGAAAGT [XGTACX_site2283] | 11.5 ± 0.7
81 | TATATATAATATATATGTACATATGTATAATATTTA [XGTACX_site4400] | 11 ± 0.45
82 | ATTCAATAATTGTTTTTTTTCTTTTTGTTTTTGTTT [GTGCAC_negctrl_site563] | 9.51 ± 0.22
83 | TATCTCATTTGGAATTGTACTAACAGATACTTGTTT [XGTACX_site2672] | 10.9 ± 0.54
84 | TATACGCATATTTTTACACACATATTTTTTCATATA [CACACA_site2546] | 10.02 ± 0.049
85 | TTTTACTAGATATATACACACATTATACCTATAGAT [CACACA_site7530] | 10.02 ± 0.014
86 | ACATTTTTTTTTTTTTTTTTTTTCTTACATCATGCA [CACACA_negctrl_site1413] | 10 ± 0.22
87 | ATATAAAGGTTTATTAGTACACATTAGAATACTTTT [XGTACX_site4492] | 11.3 ± 0.69
88 | GAAATATTTTGTTGTGCATGCGACATTAAATAAAAA [TGCATGCA_site331] | 10.3 ± 0.32

Source: the supplement of paper PMC11417369
